The list shows a part of the results. Antibody binding of pooled human sera (four to six donors per pool; dilution not stated) to peptides of the Trypanosoma cruzi antigen TSSA on microarrays. Quantile-normalised fluorescence in arbitrary units, mean of duplicate arrays; higher = more binding. No active / inactive call. The uninfected pools are read here as the healthy donors of the same country. The strongest signals lie near the top of the scale (about 60,000).
Columns and labels:
Assay in all cases: antibody binding signal (normalised fluorescence) (arbitrary fluorescence units); higher = stronger serum antibody binding to peptide
[1] = tested on: pooled sera of chronic Chagas disease patients, Argentina
Method: (§1)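 Microarray of 15-residue peptides over residues 30-55 of Trypanosoma cruzi TSSAII, each with 1 to 10 substitutions at naturally variable positions, probed with one serum pool per country.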

[2] = tested on: pooled sera of chronic Chagas disease patients, Bolivia
Method: as §1

[3] = tested on: pooled sera of chronic Chagas disease patients, Brazil
Method: as §1

[4] = tested on: pooled sera of chronic Chagas disease patients, Colombia
Method: as §1

[5] = tested on: pooled sera of chronic Chagas disease patients, Mexico
Method: as §1

[6] = tested on: pooled sera of chronic Chagas disease patients, USA
Method: as §1

[7] = tested on: pooled sera of uninfected people, Argentina
Method: as §1

[8] = tested on: pooled sera of uninfected people, Bolivia
Method: as §1

[9] = tested on: pooled sera of uninfected people, Brazil
Method: as §1

[10] = tested on: pooled sera of uninfected people, Colombia
Method: as §1

[11] = tested on: pooled sera of uninfected people, Mexico
Method: as §1

[12] = tested on: pooled sera of uninfected people, USA
Method: as §1

KKAATGGAPSQSGAS
antibody binding signal [1]: 1010
antibody binding signal [2]: 495
antibody binding signal [3]: 463
antibody binding signal [4]: 458
antibody binding signal [5]: 578
antibody binding signal [6]: 717
antibody binding signal [7]: 327
antibody binding signal [8]: 222
antibody binding signal [9]: 131
antibody binding signal [10]: 220
antibody binding signal [11]: 260
antibody binding signal [12]: 223

DNKTATGGAPSQSGA
antibody binding signal [1]: 621
antibody binding signal [2]: 529
antibody binding signal [3]: 907
antibody binding signal [4]: 624
antibody binding signal [5]: 456
antibody binding signal [6]: 392
antibody binding signal [7]: 346
antibody binding signal [8]: 196
antibody binding signal [9]: 457
antibody binding signal [10]: 214
antibody binding signal [11]: 411
antibody binding signal [12]: 226

KENKPAAGGTPSPPG
antibody binding signal [1]: 212
antibody binding signal [2]: 340
antibody binding signal [3]: 776
antibody binding signal [4]: 1080
antibody binding signal [5]: 443
antibody binding signal [6]: 365
antibody binding signal [7]: 206
antibody binding signal [8]: 390
antibody binding signal [9]: 507
antibody binding signal [10]: 270
antibody binding signal [11]: 125
antibody binding signal [12]: 163

SGKENKTAAGGAPSP
antibody binding signal [1]: 2920
antibody binding signal [2]: 515
antibody binding signal [3]: 18400
antibody binding signal [4]: 10600
antibody binding signal [5]: 4330
antibody binding signal [6]: 20700
antibody binding signal [7]: 6050
antibody binding signal [8]: 986
antibody binding signal [9]: 159
antibody binding signal [10]: 305
antibody binding signal [11]: 408
antibody binding signal [12]: 212

EKKTATGEAPSPPGA
antibody binding signal [1]: 10700
antibody binding signal [2]: 15400
antibody binding signal [3]: 12800
antibody binding signal [4]: 365
antibody binding signal [5]: 450
antibody binding signal [6]: 19600
antibody binding signal [7]: 229
antibody binding signal [8]: 865
antibody binding signal [9]: 154
antibody binding signal [10]: 101
antibody binding signal [11]: 200
antibody binding signal [12]: 780

KDNKAAAGGTPSPPG
antibody binding signal [1]: 305
antibody binding signal [2]: 209
antibody binding signal [3]: 146
antibody binding signal [4]: 901
antibody binding signal [5]: 125
antibody binding signal [6]: 740
antibody binding signal [7]: 172
antibody binding signal [8]: 1580
antibody binding signal [9]: 407
antibody binding signal [10]: 202
antibody binding signal [11]: 86.3
antibody binding signal [12]: 92.5

ENKTAAGGAPSQPGA
antibody binding signal [1]: 344
antibody binding signal [2]: 4530
antibody binding signal [3]: 8440
antibody binding signal [4]: 5280
antibody binding signal [5]: 460
antibody binding signal [6]: 1670
antibody binding signal [7]: 322
antibody binding signal [8]: 255
antibody binding signal [9]: 543
antibody binding signal [10]: 270
antibody binding signal [11]: 596
antibody binding signal [12]: 278

SGTDKKAATGGTPSQ
antibody binding signal [1]: 1020
antibody binding signal [2]: 385
antibody binding signal [3]: 2980
antibody binding signal [4]: 4830
antibody binding signal [5]: 1140
antibody binding signal [6]: 1130
antibody binding signal [7]: 317
antibody binding signal [8]: 138
antibody binding signal [9]: 629
antibody binding signal [10]: 1230
antibody binding signal [11]: 624
antibody binding signal [12]: 183

TPPSGTDKKAAAGET
antibody binding signal [1]: 16800
antibody binding signal [2]: 14300
antibody binding signal [3]: 30400
antibody binding signal [4]: 3450
antibody binding signal [5]: 38600
antibody binding signal [6]: 2230
antibody binding signal [7]: 254
antibody binding signal [8]: 317
antibody binding signal [9]: 297
antibody binding signal [10]: 330
antibody binding signal [11]: 2490
antibody binding signal [12]: 143

GKDNKTATGEAPSQP
antibody binding signal [1]: 18000
antibody binding signal [2]: 13700
antibody binding signal [3]: 37600
antibody binding signal [4]: 8220
antibody binding signal [5]: 7390
antibody binding signal [6]: 21800
antibody binding signal [7]: 387
antibody binding signal [8]: 266
antibody binding signal [9]: 187
antibody binding signal [10]: 330
antibody binding signal [11]: 140
antibody binding signal [12]: 184

DNKAAAGGTPSPPGA
antibody binding signal [1]: 301
antibody binding signal [2]: 254
antibody binding signal [3]: 312
antibody binding signal [4]: 2920
antibody binding signal [5]: 250
antibody binding signal [6]: 992
antibody binding signal [7]: 179
antibody binding signal [8]: 407
antibody binding signal [9]: 1690
antibody binding signal [10]: 601
antibody binding signal [11]: 468
antibody binding signal [12]: 111

GTENKPATGEAPSPP
antibody binding signal [1]: 46000
antibody binding signal [2]: 48800
antibody binding signal [3]: 48200
antibody binding signal [4]: 954
antibody binding signal [5]: 1760
antibody binding signal [6]: 43700
antibody binding signal [7]: 1100
antibody binding signal [8]: 1320
antibody binding signal [9]: 475
antibody binding signal [10]: 145
antibody binding signal [11]: 228
antibody binding signal [12]: 183

GTENKAAAGGTPSQP
antibody binding signal [1]: 40600
antibody binding signal [2]: 954
antibody binding signal [3]: 2240
antibody binding signal [4]: 3200
antibody binding signal [5]: 816
antibody binding signal [6]: 1980
antibody binding signal [7]: 245
antibody binding signal [8]: 390
antibody binding signal [9]: 1200
antibody binding signal [10]: 315
antibody binding signal [11]: 601
antibody binding signal [12]: 93.3

SGKENKAAAGGTPSQ
antibody binding signal [1]: 3670
antibody binding signal [2]: 1050
antibody binding signal [3]: 20900
antibody binding signal [4]: 10600
antibody binding signal [5]: 5220
antibody binding signal [6]: 22500
antibody binding signal [7]: 4790
antibody binding signal [8]: 1070
antibody binding signal [9]: 404
antibody binding signal [10]: 313
antibody binding signal [11]: 279
antibody binding signal [12]: 135

KENKTATGGAPSQPG
antibody binding signal [1]: 405
antibody binding signal [2]: 318
antibody binding signal [3]: 1130
antibody binding signal [4]: 573
antibody binding signal [5]: 393
antibody binding signal [6]: 633
antibody binding signal [7]: 268
antibody binding signal [8]: 111
antibody binding signal [9]: 150
antibody binding signal [10]: 126
antibody binding signal [11]: 195
antibody binding signal [12]: 133

TDKKPATGGTPSQSG
antibody binding signal [1]: 864
antibody binding signal [2]: 816
antibody binding signal [3]: 758
antibody binding signal [4]: 1720
antibody binding signal [5]: 921
antibody binding signal [6]: 477
antibody binding signal [7]: 339
antibody binding signal [8]: 542
antibody binding signal [9]: 897
antibody binding signal [10]: 192
antibody binding signal [11]: 249
antibody binding signal [12]: 153

KKTAAGETPSPPGAS
antibody binding signal [1]: 127
antibody binding signal [2]: 235
antibody binding signal [3]: 304
antibody binding signal [4]: 212
antibody binding signal [5]: 171
antibody binding signal [6]: 744
antibody binding signal [7]: 285
antibody binding signal [8]: 287
antibody binding signal [9]: 97.2
antibody binding signal [10]: 282
antibody binding signal [11]: 91.4
antibody binding signal [12]: 343

ISTPPSGTEKKAATG
antibody binding signal [1]: 35300
antibody binding signal [2]: 2160
antibody binding signal [3]: 29800
antibody binding signal [4]: 484
antibody binding signal [5]: 20900
antibody binding signal [6]: 4860
antibody binding signal [7]: 1000
antibody binding signal [8]: 364
antibody binding signal [9]: 149
antibody binding signal [10]: 552
antibody binding signal [11]: 111
antibody binding signal [12]: 174

STPPSGTENKTAAGG
antibody binding signal [1]: 47500
antibody binding signal [2]: 48000
antibody binding signal [3]: 51700
antibody binding signal [4]: 335
antibody binding signal [5]: 3390
antibody binding signal [6]: 38100
antibody binding signal [7]: 2730
antibody binding signal [8]: 663
antibody binding signal [9]: 622
antibody binding signal [10]: 713
antibody binding signal [11]: 634
antibody binding signal [12]: 702

KEKKTAAGETPSQSG
antibody binding signal [1]: 144
antibody binding signal [2]: 232
antibody binding signal [3]: 191
antibody binding signal [4]: 213
antibody binding signal [5]: 112
antibody binding signal [6]: 740
antibody binding signal [7]: 113
antibody binding signal [8]: 119
antibody binding signal [9]: 89.4
antibody binding signal [10]: 195
antibody binding signal [11]: 113
antibody binding signal [12]: 112

GKENKAATGETPSQP
antibody binding signal [1]: 16400
antibody binding signal [2]: 6060
antibody binding signal [3]: 41900
antibody binding signal [4]: 16900
antibody binding signal [5]: 17400
antibody binding signal [6]: 23800
antibody binding signal [7]: 525
antibody binding signal [8]: 250
antibody binding signal [9]: 205
antibody binding signal [10]: 194
antibody binding signal [11]: 240
antibody binding signal [12]: 228

GTDNKPATGGTPSQP
antibody binding signal [1]: 3330
antibody binding signal [2]: 1470
antibody binding signal [3]: 41100
antibody binding signal [4]: 2170
antibody binding signal [5]: 614
antibody binding signal [6]: 470
antibody binding signal [7]: 260
antibody binding signal [8]: 922
antibody binding signal [9]: 862
antibody binding signal [10]: 273
antibody binding signal [11]: 732
antibody binding signal [12]: 131

DNKTATGETPSPSGA
antibody binding signal [1]: 526
antibody binding signal [2]: 1000
antibody binding signal [3]: 1700
antibody binding signal [4]: 374
antibody binding signal [5]: 189
antibody binding signal [6]: 6850
antibody binding signal [7]: 168
antibody binding signal [8]: 230
antibody binding signal [9]: 202
antibody binding signal [10]: 157
antibody binding signal [11]: 175
antibody binding signal [12]: 757

ENKAATGGAPSPPGA
antibody binding signal [1]: 524
antibody binding signal [2]: 1300
antibody binding signal [3]: 3270
antibody binding signal [4]: 604
antibody binding signal [5]: 416
antibody binding signal [6]: 2600
antibody binding signal [7]: 314
antibody binding signal [8]: 140
antibody binding signal [9]: 188
antibody binding signal [10]: 183
antibody binding signal [11]: 128
antibody binding signal [12]: 179

SGKENKTAAGGTPSQ
antibody binding signal [1]: 3820
antibody binding signal [2]: 395
antibody binding signal [3]: 19600
antibody binding signal [4]: 9620
antibody binding signal [5]: 4410
antibody binding signal [6]: 21300
antibody binding signal [7]: 5100
antibody binding signal [8]: 1110
antibody binding signal [9]: 425
antibody binding signal [10]: 279
antibody binding signal [11]: 745
antibody binding signal [12]: 207
